# Results as given in the supplement of paper PMC11348887.
# Structures can show the parent of a compound that is named as a salt. The list shows a part of the results. No stated cut-off is given here; in the data, active = -2 or less and inactive = the rest. Single values are uncertain, as repeats are few or missing.
# Tested on: hPSC-derived cortical neurons (WA09)
# Experiment: nuclei number (viability) z-score; higher = more surviving cells
# Conditions: 5 µM; treatment: days 7-14 after plating, readout day 21
# 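Further: nuclei counted from DAPI counterstain by automated high-content image analysis, four fields per well at ×20 in 384-well plates, with sequential b-score then z-score normalization.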
row,SMILES,nuclei number (z-score)
1,CC(=O)c1cc([N+](=O)[O-])c(Sc2cccc(Cl)c2Cl)s1,inactive: 3.58
2,Cn1c(=O)c2[nH]cnc2n(C)c1=O [Aminophylline],inactive: 0.494
3,CS(=O)(=O)c1ccc(C2=C(c3ccccc3)C(=O)OC2)cc1 [Rofecoxib],inactive: 0.854
4,FC(F)(F)c1ccc(CNc2ccc(Cc3c[nH]c4ncc(Cl)cc34)cn2)cn1 [Pexidartinib (PLX3397)],inactive: 0.0889
5,O=C(Nc1ccccc1)c1ccccc1O [Salicylanilide],inactive: 0.461
6,Cc1ncc([N+](=O)[O-])n1CC(O)CCl (stereo not given) [Ornidazole],inactive: 0.0754
7,CN1C(C(=O)Nc2ccccn2)=C(O)c2sccc2S1(=O)=O [Tenoxicam],inactive: 2.51
8,N#Cc1ccc2[nH]cc(CCCCN3CCN(c4ccc5oc(C(N)=O)cc5c4)CC3)c2c1 [Vilazodone HCl],inactive: -0.0916
9,CN(C)c1ccc2nc3ccc(=[N+](C)C)cc-3sc2c1 [Methylene Blue],active: -6.32
10,COc1cc(/C=C/C(=O)N2CCC=CC2=O)cc(OC)c1OC [Piperlongumine],active: -2.94
11,Cc1cccc(C)c1NC(=O)C1CCCCN1C (stereo not given) [Mepivacaine HCl],inactive: -0.638
12,CCc1nc(-c2cccc(C)c2)c(-c2ccnc(NC(=O)c3ccccc3)c2)s1,inactive: 1.15
13,Cc1c(C(N)=O)cc([N+](=O)[O-])cc1[N+](=O)[O-] [Dinitolmide],inactive: 1.29
14,N=C(N)N [Guanidine HCl],inactive: 1.07
15,CC1(COc2ccc3c(c2)ncn3-c2ccc3cccc(N4CCC(N)CC4)c3n2)COC1,inactive: -0.718
16,COc1ccccc1-c1cc(Nc2cccc(CS(N)(=O)=O)c2)ncn1,inactive: 0.608
17,CNCC[C@H](Oc1cccc2ccccc12)c1cccs1 [Duloxetine HCl],inactive: -0.433
18,COc1ccc(S(=O)(=O)Nc2nc(-c3cccc([N+](=O)[O-])c3)cs2)cc1OC,inactive: 0.114
19,C[C@@H](Oc1cc(-n2cnc3ccc(CN4CCN(C)CC4)cc32)sc1C(N)=O)c1ccccc1C(F)(F)F,inactive: -0.972
20,COc1cc2c(cc1OC)C(=O)C(CC1CCN(Cc3ccccc3)CC1)C2 (stereo not given) [Donepezil HCl],inactive: -0.593
21,OC[C@@H](O)[C@H](O)[C@@H](O)CO [Xylitol],inactive: 0.488
22,COc1ccc([C@H]2CNC(=O)C2)cc1OC1CCCC1 [S- (+)-Rolipram],inactive: 0.907
23,CN(C(=O)c1ccc(F)cc1C(F)(F)F)C1CCN(c2nnc(-c3ccnn3C)c3ccccc23)CC1,inactive: -0.88
24,COc1cc2c(cc1OC)CN(CCc1ccc(NC(=O)c3cc(OC)c(OC)cc3NC(=O)c3cnc4ccccc4c3)cc1)CC2 [Tariquidar],inactive: -1.29

row,SMILES,nuclei number (z-score)
1,COc1cc(Cc2cnc(N)nc2N)cc(OC)c1OC [Trimethoprim],inactive: -0.79
2,CCCCOC(=O)c1ccc(N)cc1 [Butamben],inactive: -0.144
3,CCCCC1=NC2(CCCC2)C(=O)N1Cc1ccc(-c2ccccc2-c2nnn[nH]2)cc1 [Irbesartan],inactive: 0.192
4,CN(C)CC[C@H](CSc1ccccc1)Nc1ccc(S(=O)(=O)NC(=O)c2ccc(N3CCN(Cc4ccccc4-c4ccc(Cl)cc4)CC3)cc2)cc1[N+](=O)[O-],active: -4.18
5,NC(=O)Cc1cccc(C(=O)c2ccccc2)c1N [Nepafenac],inactive: 1.84
6,C[C@H]1COC2=C1C(=O)C(=O)c1c2ccc2c1CCCC2(C)C [Cryptotanshinone],inactive: 1.89
7,CC[C@H]1OC(=O)[C@H](C)[C@@H](O[C@H]2C[C@@](C)(OC)[C@@H](O)[C@H](C)O2)[C@H](C)[C@@H](O[C@@H]2O[C@H](C)C[C@H](N(C)C)[C@H]2O)[C@](C)(OC)C[C@@H](C)C(=O)[C@H](C)[C@@H](O)[C@]1(C)O [Clarithromycin],inactive: 0.413
8,O=[N+]([O-])c1ccc2c(c1)S(=O)(=O)C=C2 [Stattic],inactive: -1.74
9,CCCCCCCCC/C(=C\C1=C(C)C(=O)C(OC)=C(OC)C1=O)C(=O)O,inactive: 0.725
10,CCCCOc1c(C(=O)c2c(F)cc(C)cc2F)c[nH]c2nncc1-2,inactive: 4.05
11,Nc1ccccc1NC(=O)c1ccc(CNC(=O)OCc2cccnc2)cc1 [Entinostat (MS-275)],active: -3.21
12,CCCC[S+]([O-])c1sc2nc(-c3cccs3)cc(-c3ccccc3)c2c1N (stereo not given),inactive: 0.12
13,N=C(N)NC(=O)c1nc(Cl)c(N)nc1N [Amiloride HCl dihydrate],inactive: 0.307
14,N=C(N)NC(=O)c1nc(Cl)c(N)nc1N [Amiloride HCl],inactive: 0.502
15,CC(C)C[C@@H]1NC(=O)[C@@H](C(C)C)NC(=O)[C@@H]2CCCN2C(=O)[C@@H](CC(=O)O)NC(=O)[C@@H](Cc2c[nH]c3ccccc23)NC1=O,inactive: 0.485
16,CN(C)C(=O)COC(=O)Cc1ccc(OC(=O)c2ccc(NC(=N)N)cc2)cc1 [Camostat Mesilate],inactive: 0.0476
17,CCOc1cc([C@@H](CS(C)(=O)=O)N2C(=O)c3cccc(NC(C)=O)c3C2=O)ccc1OC,inactive: 0.646
18,NS(=O)(=O)c1cc(C(=O)O)c(NCc2ccco2)cc1Cl [Furosemide],inactive: 0.0728
19,O=C(O)c1cc(=O)c2ccccc2o1 [Chromocarb],inactive: -0.116
20,CCc1cncnc1N1CCN(Cc2nc3ccc(C(F)(F)F)cc3[nH]2)CC1,inactive: -0.331
21,COc1cc(C(=O)NS(=O)(=O)c2ccccc2C)ccc1Cc1cn(C)c2ccc(NC(=O)OC3CCCC3)cc12 [Zafirlukast],inactive: -0.352
22,CN[C@H]1CN(c2ccc3c(=O)c(C(=O)O)cn(-c4nccs4)c3n2)C[C@@H]1OC [Voreloxin (SNS-595)],active: -4.56
23,CC1=C(C(=O)OC(C)C)C(c2cccc([N+](=O)[O-])c2)C(C(=O)OC2CN(C(c3ccccc3)c3ccccc3)C2)=C(N)N1 (stereo not given) [Azelnidipine],active: -2.63
24,Cc1cc(C2CCCCC2)n(O)c(=O)c1 [Ciclopirox ethanolamine],active: -6.45

row,SMILES,nuclei number (z-score)
1,Cc1cc(C2CCCCC2)n(O)c(=O)c1 [Ciclopirox],active: -9.28
2,CN[C@H](CC(C)C)C(=O)N[C@H]1C(=O)N[C@@H](CC(N)=O)C(=O)N[C@H]2C(=O)N[C@H]3C(=O)N[C@H](C(=O)N[C@H](C(=O)O)c4cc(O)cc(O)c4-c4cc3ccc4O)[C@H](O)c3ccc(c(Cl)c3)Oc3cc2cc(c3O[C@@H]2O[C@H](CO)[C@@H](O)[C@H](O)[C@H]2O[C@H]2C[C@](C)(N)[C@H](O)[C@H](C)O2)Oc2ccc(cc2Cl)[C@H]1O [Vancomycin HCl],inactive: -0.359
3,CNS(=O)(=O)Cc1ccc2[nH]cc(CCN(C)C)c2c1 [Sumatriptan Succinate],inactive: -0.0464
4,O=c1c(O)c(-c2ccc(O)c(O)c2)oc2cc(O)ccc12 [Fisetin],inactive: 0.0281
5,O=C(COc1ccc(Cl)cc1)NC1CCC(NC(=O)COc2ccc(Cl)cc2)CC1 (stereo not drawn) [ISRIB (trans-isomer)],inactive: -0.585
6,COc1cc2ncnc(Oc3cccc(NC(=O)Nc4cc(C(C)(C)C(F)(F)F)on4)c3)c2cc1OC,inactive: 1.21
7,NS(=O)(=O)c1cc2c(cc1Cl)N=CNS2(=O)=O [Chlorothiazide],inactive: -0.0531
8,COc1ccc(-c2cnc3c(-c4cccc5ncccc45)cnn3c2)cc1,inactive: -0.0755
9,NCC(=O)Nc1ccc(-n2nc(C(F)(F)F)cc2-c2ccc3c(ccc4ccccc43)c2)cc1,active: -2.63
10,COc1ccc(-c2nc3cc(C4=NNC(=O)CC4C)ccc3[nH]2)cc1 (stereo not given) [Pimobendan],inactive: 0.292
11,Cc1ccc(S(=O)(=O)n2c(N)nc3ccccc32)cc1 [ML130 (Nodinitib-1)],inactive: -0.32
12,O=C(NCc1ccncc1)C12CC3CC(C1)CC(c1ccc(Cl)cc1)(C3)C2,inactive: 4
13,CCOC(=O)[C@H](CCc1ccccc1)N[C@@H](C)C(=O)N1[C@H](C(=O)O)C[C@@H]2CCC[C@@H]21 [Ramipril],inactive: -0.956
14,NC(=O)c1ncn([C@@H]2O[C@H](CO)[C@@H](O)[C@H]2O)n1 [Ribavirin],inactive: 0.17
15,Cc1cc(Nc2ncc(Cl)c(Nc3ccccc3S(=O)(=O)C(C)C)n2)c(OC(C)C)cc1C1CCNCC1,active: -5.22
16,O=C(O)Cc1cc(I)c(Oc2ccc(O)c(I)c2)c(I)c1 [Tiratricol],inactive: 0.93
17,COCCCOc1ccnc(C[S+]([O-])c2nc3ccccc3[nH]2)c1C (stereo not given) [Rebeprazole sodium],inactive: 5.28
18,CCC(CC)(NC(=O)C(C)C)C(=O)N[C@@H](CCCN=C(N)N)C(=O)NC1(C(=O)NC(c2ccc(F)cc2)c2ccc(F)cc2)CCCC1,inactive: 2.02
19,Nc1ncc(-c2ccnc(Nc3ccncc3)n2)c(CC2CC2)n1,inactive: -1.9
20,C[C@@H](Oc1cc(-c2cnn(C3CCNCC3)c2)cnc1N)c1c(Cl)ccc(F)c1Cl,inactive: 0.303
21,CC(C)CCn1c(CN2CCN(C(=O)C3CC3)CC2)nc2c1c(=O)n(C)c(=O)n2C,inactive: 5.22
22,CC(C)(O)CNc1nc(Nc2ccnc(C(F)(F)F)c2)nc(-c2cccc(C(F)(F)F)n2)n1 [Enasidenib (AG-221)],inactive: 0.0308
